{"source": "PubChem BioAssay AID504339", "about": "(National Center for Advancing Translational Sciences (NCATS), 2011)", "note": "Out of some 390,000 compounds screened, about 17,000 (4.4%) were called active. Inconclusive means that the source gave no clear call. Such entries were picked first, then a sample of the others. The call rests on the fitted dose curve; in most records, active means well fitted inhibition curve with a large enough effect; inconclusive means small, poorly fitted or top-dose-only effect; inactive means no such curve, though single readings can be large or run the other way. A potency beside an inconclusive call is a rough fit, not a confirmed value. On the % scale 0 is the no-effect control and ±100 the full control effect; potency means the concentration at half of the fitted maximal effect; tags describe the fitted curve by direction and shape."}
{"biological_target": "Lysine-specific demethylase 4A (Homo sapiens) (UniProt O75164)", "sequence (O75164 whole entry, looked up, the tested form may be a part)": "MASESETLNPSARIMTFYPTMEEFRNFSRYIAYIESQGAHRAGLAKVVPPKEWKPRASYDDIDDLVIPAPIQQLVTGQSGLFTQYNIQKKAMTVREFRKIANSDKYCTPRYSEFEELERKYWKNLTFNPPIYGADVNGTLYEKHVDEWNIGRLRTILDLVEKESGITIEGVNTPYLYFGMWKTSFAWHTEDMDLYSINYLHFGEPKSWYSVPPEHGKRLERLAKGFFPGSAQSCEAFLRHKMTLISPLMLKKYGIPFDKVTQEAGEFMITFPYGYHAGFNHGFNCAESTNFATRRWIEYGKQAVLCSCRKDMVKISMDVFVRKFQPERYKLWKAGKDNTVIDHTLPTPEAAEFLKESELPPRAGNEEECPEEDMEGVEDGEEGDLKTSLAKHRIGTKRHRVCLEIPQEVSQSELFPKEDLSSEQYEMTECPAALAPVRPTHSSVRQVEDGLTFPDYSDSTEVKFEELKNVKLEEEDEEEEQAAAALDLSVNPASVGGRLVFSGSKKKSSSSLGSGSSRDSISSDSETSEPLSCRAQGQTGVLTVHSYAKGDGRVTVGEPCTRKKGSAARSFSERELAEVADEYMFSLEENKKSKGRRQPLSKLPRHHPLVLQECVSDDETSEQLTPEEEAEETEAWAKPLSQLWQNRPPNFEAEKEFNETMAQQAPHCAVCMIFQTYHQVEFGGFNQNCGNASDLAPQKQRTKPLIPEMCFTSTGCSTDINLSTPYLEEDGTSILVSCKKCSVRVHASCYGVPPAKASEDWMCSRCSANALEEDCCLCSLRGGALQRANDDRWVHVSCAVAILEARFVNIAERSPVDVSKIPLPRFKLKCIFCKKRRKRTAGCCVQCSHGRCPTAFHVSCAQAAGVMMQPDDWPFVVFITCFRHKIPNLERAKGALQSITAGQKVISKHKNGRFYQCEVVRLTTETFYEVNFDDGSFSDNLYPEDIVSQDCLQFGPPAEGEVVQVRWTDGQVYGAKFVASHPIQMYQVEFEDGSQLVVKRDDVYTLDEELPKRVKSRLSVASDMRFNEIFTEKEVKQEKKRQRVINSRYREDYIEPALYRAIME", "experiment": "qHTS Assay for Inhibitors of JMJD2A-Tudor Domain; further: nearly all actives have a fitted effect of over 50% in size", "details": "AlphaScreen JMJD2A-Tudor / H3K4me3 peptide binding; activity change, negative = inhibition: at 114 µM (top of the series)"}
{"smiles": "O=C(CNCc1ccccn1)Nc1ccc([N+](=O)[O-])cc1C(=O)Nc1ccccc1F", "Potency": "active: 44.7 µM"}
{"smiles": "CCCCOC(=O)CCCc1ccc([N+](=O)[O-])cc1[N+](=O)[O-]", "Potency": "inconclusive: 56.2 µM [inhibitor, partial curve, poor fit]"}
{"smiles": "CN(C)c1ccc(CNC(=O)c2ccccc2NC(=O)c2nsc3ccccc23)cc1", "activity change, negative = inhibition": "inactive: -20.8%"}
{"smiles": "CC1Cc2ccccc2N1C(=O)CSc1nnc(-c2ccccc2Cl)o1", "note": "(stereo unspecified)", "activity change, negative = inhibition": "inactive: 0.993%"}
{"smiles": "COC(=O)C1=C(NC(=O)C2CCCCC2)CCS1", "Potency": "inconclusive: 17.8 µM [inhibitor, full curve, poor fit]"}
{"smiles": "CCn1nc(C)c(C(=O)Nc2cc(Oc3ccc(Cl)cc3)cc([N+](=O)[O-])c2)c1C", "Potency": "inconclusive: 22.4 µM [inhibitor, full curve]"}
{"smiles": "C=CCOc1ccc(CNn2cn[nH]c2=S)cc1", "Potency": "active: 31.6 µM"}
{"smiles": "CC(C)C[C@H](NC(=O)c1nc[nH]c1C(=O)NCC(=O)OCc1ccccc1)C(=O)OCc1ccccc1", "activity change, negative = inhibition": "inactive: -30.7%"}
{"smiles": "COc1ccccc1NS(=O)(=O)c1ccc2c(c1)CCC(=O)N2", "activity change, negative = inhibition": "inactive: 7.48%"}
{"smiles": "CC(=O)N1CSCC1C(=O)NNS(=O)(=O)c1ccccc1", "note": "(stereo unspecified)", "Potency": "active: 25.1 µM"}
{"smiles": "CCOC(=O)c1ccc(Cn2cnc3ccccc3c2=O)cc1", "activity change, negative = inhibition": "inactive: -7.09% [at 57.1 µM]"}
{"smiles": "O=C(c1cccs1)N1CCN(Cc2cccc([N+](=O)[O-])c2)CC1", "Potency": "active: 20 µM"}
{"smiles": "O=[N+]([O-])c1cccc(C=NNc2ccc3ccccc3n2)c1O", "Potency": "active: 22.4 µM"}
{"smiles": "COC1=C2C[C@H](C)C[C@H](OC)[C@@H](O)[C@@H](C)C=C(C)[C@H](OC(N)=O)[C@@H](OC)C=CC=C(C)C(=O)NC(=CC1=O)C2=O", "Potency": "inconclusive: 63.1 µM [inhibitor, partial curve]"}
{"smiles": "Cc1nc(P(=O)(c2ccccc2)c2ccccc2)c(N2CCOCC2)o1", "Potency": "inconclusive: 4.47 µM [inhibitor, full curve, poor fit]"}
{"smiles": "CCCOc1ccc(CNC(=O)c2ccc(-n3c(C)cc4c3CCC(C)C4)cc2)cc1", "note": "(stereo unspecified)", "Potency": "inconclusive: 63.1 µM [inhibitor, partial curve, poor fit]"}
{"smiles": "C/C=C/c1cc(CN2CCN(c3ccc(OC)cc3)CC2)c(O)c(OC)c1", "Potency": "active: 44.7 µM"}
{"smiles": "CCOC(=O)c1ccc(NC(=S)N2CCCC(C(=O)OCC)C2)cc1", "note": "(stereo unspecified)", "activity change, negative = inhibition": "inactive: -11.7%"}
{"smiles": "CC1Cc2ccccc2N1C(=O)COC(=O)C1(c2ccccc2F)CCCC1", "note": "(stereo unspecified)", "activity change, negative = inhibition": "inactive: 5.63%"}
{"smiles": "O=C(O)c1ccccc1C(=O)c1ccc2oc(=O)[nH]c2c1", "Potency": "inconclusive: 31.6 µM [inhibitor, full curve]"}
{"smiles": "O=C(CSc1nc2ccccc2n1CC(=O)N1CCOCC1)N1CCCC1", "activity change, negative = inhibition": "inactive: -15% [at 57.1 µM]"}
{"smiles": "CC(C)(C)N1C(=O)Cc2c1nc(N)c1c(N)nc(N3CCCCC3CO)c(C#N)c21", "note": "(stereo unspecified)", "Potency": "active: 50.1 µM"}
{"smiles": "O=C(Nc1ccc(N2CCCCC2)c(Cl)c1)c1cccnc1", "activity change, negative = inhibition": "inactive: -6.94%"}
{"smiles": "COc1ccc(CN2CC(=O)N(c3ccc(C)c(C)c3)C2=S)cc1OC", "Potency": "active: 56.2 µM"}
{"smiles": "COc1cc(CN2CCN(Cc3ccc(C(F)(F)F)cc3)CC2)cc(OC)c1OC", "Potency": "active: 20 µM"}
{"smiles": "Cc1cccc(N2CCN(S(=O)(=O)c3ccc4[nH]c5c(c4c3)CCCCC5)CC2)c1C", "Potency": "inconclusive: 44.7 µM [inhibitor, partial curve]"}
{"smiles": "COc1ccc(-c2c3c(=O)n(C)c(=O)n(C)c3cn2C2CCCCC2)cc1", "Potency": "inconclusive: 56.2 µM [inhibitor, partial curve]"}
{"smiles": "Cc1cccc(N(CC(=O)NCc2ccccc2)C(=O)Cn2nnc(-c3ccc(C)o3)n2)c1", "activity change, negative = inhibition": "inactive: -14.1%"}
{"smiles": "CCn1c(SCC(=O)NC2CC2)nnc1C(C)Oc1ccccc1", "note": "(stereo unspecified)", "Potency": "inconclusive: 31.6 µM [inhibitor, single point]"}
{"smiles": "COc1ccc(-c2ccc3c(c2)c(-c2cccs2)c(-c2cc(OC)cc(OC)c2)n3C)cc1", "activity change, negative = inhibition": "inactive: -17.9%"}
{"smiles": "Cc1nc(-c2ccccc2)sc1CCNC(=O)C(=O)Nc1ccc2c(c1)OCO2", "activity change, negative = inhibition": "inactive: 2.9%"}
{"smiles": "O=C(O)c1ccc(-n2c(O)c(C=C3N=c4ccccc4=N3)sc2=S)cc1", "Potency": "inconclusive: 44.7 µM [inhibitor, partial curve]"}
{"smiles": "Cc1ccc(NC(=O)C(C)n2nnc3sc4c(c3c2=O)CCCC4)cc1Cl", "note": "(stereo unspecified)", "activity change, negative = inhibition": "inactive: -29.2%"}
{"smiles": "Cc1c(Cl)cccc1NC(=O)c1ncoc1-c1ccco1", "activity change, negative = inhibition": "inactive: 18.2%"}
{"smiles": "Cc1ccc(/C=C/C(=O)Nc2ccc([N+](=O)[O-])c(NC(=O)/C=C/c3ccc(C)o3)c2)o1", "Potency": "active: 79.4 µM"}
{"smiles": "Cc1ccc(CN(C(=O)COc2ccc(Br)cc2)C2CCS(=O)(=O)C2)o1", "note": "(stereo unspecified)", "Potency": "active: 25.1 µM"}
{"smiles": "O=S(=O)(Nc1ccc(N2CCCCC2)cc1)c1ccc(F)c(F)c1", "Potency": "inconclusive: 50.1 µM [inhibitor, partial curve]"}
{"smiles": "Cc1ccnc2nc(C(=O)Nc3nc(-c4ccccn4)cs3)nn12", "Potency": "active: 22.4 µM"}
{"smiles": "COc1cccc(/C=N/n2c(C3CCCCC3)n[nH]c2=S)c1OC", "Potency": "inconclusive: 56.2 µM [inhibitor, partial curve, poor fit]"}
{"smiles": "Cc1cccc(/C=N/NC(=O)CC(=O)NCCc2ccccc2)c1", "activity change, negative = inhibition": "inactive: -19.6%"}
{"smiles": "CCOCCCN1C(=O)c2[nH]nc(-c3ccccc3O)c2C1c1ccc(CC)cc1", "note": "(stereo unspecified)", "Potency": "inconclusive: 56.2 µM [inhibitor, partial curve]"}
{"smiles": "O=C(NC1CCCCCC1)c1ccc(CN2CCOCC2)cc1", "Potency": "inconclusive: 35.5 µM [inhibitor, single point]"}
{"smiles": "COc1ccccc1N1C(=O)N(C(C)=O)C2C1Nc1ccccc1N2C", "note": "(stereo unspecified)", "Potency": "inconclusive: 50.1 µM [inhibitor, partial curve]"}
{"smiles": "Cn1ccnc1SCC(=O)c1ccc(Br)cc1", "Potency": "inconclusive: 79.4 µM [inhibitor, single point]"}
{"smiles": "Cc1ccc(C)c(Cn2nnc3c(=O)[nH]c(C(=O)NCC4CCCO4)nc32)c1", "note": "(stereo unspecified)", "Potency": "inconclusive: 39.8 µM [inhibitor, partial curve]"}
{"smiles": "Nc1ncc(Br)cc1S(=O)(=O)NCCC(=O)NC1CCCCC1", "Potency": "inconclusive: 22.4 µM [inhibitor, single point]"}
{"smiles": "Cc1ccc(S(=O)(=O)c2nc(-c3ccccc3)oc2SCC(=O)NCC2CCCO2)cc1", "note": "(stereo unspecified)", "activity change, negative = inhibition": "inactive: -30.7%"}
{"smiles": "Cc1cc[n+](C(C)C(=O)c2ccc(-c3ccccc3)cc2)cc1", "note": "(stereo unspecified)", "activity change, negative = inhibition": "inactive: -17.3%"}
{"smiles": "c1ccc(-c2csc3nnc(SCc4ccc5c(c4)OCO5)n23)cc1", "Potency": "active: 20 µM"}
{"smiles": "Cc1ccc(OCC(=O)O)c(O)c1", "Potency": "inconclusive: 25.1 µM [inhibitor, full curve]"}
{"smiles": "Cc1cc(/C=N/NC(N)=O)c(C)n1-c1ccc(F)cc1", "Potency": "inconclusive: 56.2 µM [inhibitor, partial curve]"}
{"smiles": "CCc1cccc(OCCCCN(CC)CC)c1", "Potency": "active: 3.55 µM"}
{"smiles": "COc1cccc(-c2cn3nc(C)c(C)nc3n2)c1", "activity change, negative = inhibition": "inactive: -17.1%"}
{"smiles": "O=C(c1ccco1)N1CCN(c2ncnc3c2nnn3Cc2ccccc2Cl)CC1", "Potency": "inconclusive: 39.8 µM [inhibitor, single point]"}
{"smiles": "NS(=O)(=O)c1ccc(NC(=S)N2CCC(Cc3ccccc3)CC2)cc1", "Potency": "inconclusive: 79.4 µM [inhibitor, partial curve]"}
{"smiles": "O=C1CC(c2ccccc2)c2c(n3ncnc3[nH]c2=O)N1", "note": "(stereo unspecified)", "activity change, negative = inhibition": "inactive: -22.9%"}
{"smiles": "O=C(CN1CCOCC1)Nc1ncc(Cc2cccc3ccccc23)s1", "Potency": "inconclusive: 89.1 µM [inhibitor, partial curve]"}
{"smiles": "COc1ccc(C2c3sc(=O)[nH]c3SC3C4CCC(C4)C23)cc1OC", "note": "(stereo unspecified)", "Potency": "inconclusive: 56.2 µM [inhibitor, partial curve]"}
{"smiles": "Cc1ccc(-n2nnnc2SCC(=O)N2CC(=O)Nc3ccccc32)cc1", "activity change, negative = inhibition": "inactive: -21.1%"}
{"smiles": "C[C@H](NC(=O)c1ccccc1F)C(=O)N1CCC2(CC1)NCCc1[nH]cnc12", "Potency": "inconclusive: 100 µM [inhibitor, single point]"}
{"smiles": "COc1cccc(O)c1CN1CCC(C(=O)Nc2ccc(-c3cccc(C)c3)cc2)CC1", "Potency": "inconclusive: 39.8 µM [inhibitor, full curve]"}
{"smiles": "COc1ccc(C(=O)N2CCC(C(=O)Nc3ccc(Cl)cc3)CC2)cc1", "activity change, negative = inhibition": "inactive: -5.88%"}
{"smiles": "CS(=O)(=O)N1Cc2ccccc2CC1C(=O)OCC(=O)NCc1ccccc1", "note": "(stereo unspecified)", "Potency": "inconclusive: 44.7 µM [inhibitor, partial curve]"}
{"smiles": "COc1cc(OC)cc(C(=O)N[C@H](C(=O)OCC(=O)Nc2sccc2C#N)C(C)C)c1", "Potency": "inconclusive: 56.2 µM [inhibitor, partial curve]"}
{"smiles": "CCCCN(CC)CCCNC(=O)Cn1ncc2c3ccccc3n(C)c2c1=O", "Potency": "inconclusive: 39.8 µM [inhibitor, single point]"}
{"smiles": "COc1ccc(CC(=O)n2[nH]c(=O)c3ccccc3c2=O)cc1OC", "activity change, negative = inhibition": "inactive: 7.36%"}
{"smiles": "Fc1ccc(CN2CCSCC2)cc1F", "Potency": "active: 3.98 µM"}
{"smiles": "CCc1ccc(CN(C)CC(O)COc2cccc3ccccc23)cc1", "note": "(stereo unspecified)", "Potency": "active: 2.51 µM"}
{"smiles": "CC(CS(=O)(=O)c1ccc2c(c1)NC(=O)CS2)C(=O)N1CCN(c2cccc(Cl)c2)CC1", "note": "(stereo unspecified)", "Potency": "inconclusive: 89.1 µM [inhibitor, partial curve]"}
{"smiles": "CCOc1cc(C=O)cc(N=Nc2cccc([N+](=O)[O-])c2)c1O", "Potency": "inconclusive: 44.7 µM [inhibitor, partial curve]"}
{"smiles": "Cc1cc(C)cc(NC(=S)NCc2cccn2C)c1", "Potency": "inconclusive: 50.1 µM [inhibitor, partial curve]"}
{"smiles": "CCN(Cc1nc(-c2ccc(OC)cc2)oc1C)S(=O)(=O)c1ccc(C)cc1", "activity change, negative = inhibition": "inactive: 10.6%"}
{"smiles": "CCCNC(=O)N1CCC(n2nccc2NC(=O)CCOc2ccccc2)CC1", "activity change, negative = inhibition": "inactive: -10.3%"}
{"smiles": "COc1cc(-c2cc(OC)c3c(C)oc(C)c3c(=O)c2)ccc1O", "Potency": "inconclusive: 56.2 µM [inhibitor, partial curve]"}
{"smiles": "O=C(CNCc1ccccc1Cl)Nc1cc(S(=O)(=O)N2CCOCC2)ccc1Cl", "Potency": "active: 7.94 µM"}
{"smiles": "CCOC(=O)Cc1ccc(NC(=O)N2CCC(CN3CCCCCC3)CC2)cc1", "activity change, negative = inhibition": "inactive: -28.7%"}
